{"source": "the supplement of paper PMC9446081", "note": "Screen size: about 39,000 compounds; about 220 (0.56%) showed activity. This is one part of the list.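 Further: static incubation at 37 °C against the wild-type strain, values averaged over two biological replicates.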"}
{"test_system": "Escherichia coli K-12 BW25113", "assay": "relative growth (OD600 normalised to plate interquartile mean) (fraction); higher = less growth inhibition, active = 0.2 or less", "settings": "50 µM; LB; incubation time: overnight (16-24 h)"}
{"smiles": "O=c1[nH]c2ccccc2n1C1CCN(Cc2ccc(-c3nc4cc5[nH]cnc5cc4nc3-c3ccccc3)cc2)CC1", "relative growth": "inactive: 1.09"}
{"smiles": "Br.CN1C2CC(OC(=O)C(CO)c3ccccc3)CC1C(O)C2", "note": "(racemic)", "relative growth": "inactive: 1.11"}
{"smiles": "CCC(C)C(=O)OC1CC2(C)C(c3ccoc3)OC(=O)CC23OC2(C)OC34C(OC(C)=O)C3(O)C(OC(=O)C5(C)OC5C)C5(C)CC3(O)C(C)(C5CC(=O)OC)C14O2", "note": "(centres undefined)", "relative growth": "inactive: 0.745"}
{"smiles": "CN1CCC2(C)c3cc(O)ccc3N(C)C12.O=C(O)C=CC(=O)O", "note": "(centres undefined)", "relative growth": "inactive: 0.961"}
{"smiles": "CN1C(=O)N(C)C2C1N(C)C(=O)N2C", "note": "(centres undefined)", "relative growth": "inactive: 1.01"}
{"smiles": "COc1ccc(N=[N+]=[N-])cc1", "relative growth": "inactive: 1.01"}
{"smiles": "COC(=O)C[C@H]1CC[C@@H]2NC[C@H](O)COC[C@H]2O1", "relative growth": "inactive: 1.04"}
{"smiles": "O=C(O)CCCc1ccc(N(CCCl)CCCl)cc1", "relative growth": "inactive: 1.01"}
{"smiles": "CNC(=O)Oc1ccc2c(c1)C1(C)CCN(C)C1N2C", "note": "(centres undefined)", "relative growth": "inactive: 1.07"}
{"smiles": "O=C1CCCC2C3CC(CN12)C1CCCCN1C3.[O-][Cl+3]([O-])([O-])O", "note": "(centres undefined)", "relative growth": "inactive: 1.18"}
{"smiles": "COC(=O)C[C@H]1CC[C@@H]2NC[C@@H](O)COC[C@H]2O1", "relative growth": "inactive: 0.999"}
{"smiles": "Nc1c[n+](CCc2ccccc2)no1", "relative growth": "inactive: 0.972"}
{"smiles": "CN1CCOCC12CCN(c1ncccn1)CC2", "relative growth": "inactive: 1.02"}
{"smiles": "CCCCOC(=O)C1=CC(=O)CC(C)(C)O1", "relative growth": "inactive: 0.979"}
{"smiles": "O=c1[nH]c2ccccc2n1CCCN1CCC(n2c(=O)[nH]c3cc(Cl)ccc32)CC1", "relative growth": "inactive: 1.16"}
{"smiles": "CC(=O)c1c(O)cc(C)oc1=O", "relative growth": "inactive: 0.951"}
{"smiles": "CC(C)C[C@@H](NC(=O)[C@H](Cc1ccccc1)NC(=O)CNC(=O)[C@@H](C)NC(=O)[C@@H](N)Cc1ccc(O)cc1)C(=O)O", "relative growth": "inactive: 0.981"}
{"smiles": "CC(C)C12OC1C1OC13C1(C)CCC4=C(COC4=O)C1CC1OC13C2O", "note": "(centres undefined)", "relative growth": "inactive: 0.947"}
{"smiles": "Cc1cc(O[C@@H]2O[C@H](CO)[C@@H](O)[C@H](O)[C@H]2O)c2c3c(c(=O)oc2c1)CCC3", "relative growth": "inactive: 1.05"}
{"smiles": "CC(C)C[C@@H](N)C1(c2ccc(Cl)cc2)CCC1", "relative growth": "inactive: 0.938"}
{"smiles": "c1cn(C[C@H]2CC[C@H]3NCCO[C@@H]23)cn1", "relative growth": "inactive: 0.855"}
{"smiles": "CN1[C@@H]2CC[C@H]1CNC(=O)C2", "relative growth": "inactive: 1"}
{"smiles": "C[C@@H]1[C@H](O)[C@@H](C)/C=C\\C=C/CC\\C=C/C=C\\C=C/C=C\\[C@@H](O[C@@H]2O[C@H](C)[C@@H](O)[C@H](N)[C@@H]2O)C[C@@H]2O[C@](O)(C[C@@H](O)[C@H](O)CC[C@@H](O)C[C@@H](O)C[C@@H](O)CC(=O)O[C@H]1C)C[C@H](O)[C@H]2C(=O)O", "relative growth": "inactive: 1.01"}
{"smiles": "CO[C@H]1[C@@H](O)C[C@@H](O[C@H]2[C@@H](O)C[C@@H](O[C@H]3[C@@H](O)C[C@@H](O[C@H]4CC[C@@]5(C)[C@@H](CC[C@H]6[C@@H]5C[C@@H](O)[C@@]5(C)[C@H](C7=CC(=O)OC7)CC[C@@]65O)C4)O[C@@H]3C)O[C@@H]2C)O[C@@H]1C", "relative growth": "inactive: 1"}
{"smiles": "Cc1ccc(N=CN(C)C=Nc2ccc(C)cc2C)c(C)c1", "relative growth": "inactive: 1.03"}
{"smiles": "CC(C)N(C)C[C@H]1CO[C@]2(CNCCOC2)C1", "relative growth": "inactive: 1.04"}
{"smiles": "CC(C)c1ccc2c(c1)[C@H](O)[C@H](N)CCO2", "relative growth": "inactive: 0.876"}
{"smiles": "CN(C)C(=O)C(CCN1CCC(O)(c2ccc(Cl)cc2)CC1)(c1ccccc1)c1ccccc1.Cl", "relative growth": "inactive: 1.01"}
{"smiles": "CC1=C[C@H]2O[C@@H]3[C@H](O)[C@@H](O[C@H]4O[C@H](CO)[C@@H](O)[C@H](O)[C@H]4O)[C@](C)([C@@]2(CO)CC1)[C@]31CO1", "relative growth": "inactive: 0.947"}
{"smiles": "CC[C@@H](C)C(=O)O[C@@H]1C[C@@]2(C)[C@H](c3ccoc3)OC(=O)C[C@]23O[C@@]2(C)O[C@]34[C@H](OC(=O)C(C)C)[C@@]3(O)[C@@H](OC(=O)[C@@]5(C)O[C@@H]5C)[C@@]5(C)C[C@]3(O)[C@@](C)([C@H]5CC(=O)OC)[C@@]14O2", "relative growth": "inactive: 1.01"}
{"smiles": "O=C([O-])Cc1ccccc1.[Na+]", "relative growth": "inactive: 0.934"}
{"smiles": "CN1[C@@H]2CC[C@@H]1CC(N)C2", "note": "(some centres undefined)", "relative growth": "inactive: 1.01"}
{"smiles": "N#CCCN.O=C(O)C=CC(=O)O", "relative growth": "inactive: 0.891"}
{"smiles": "C[N+](C)(C)CCCCCCCCCC[N+](C)(C)C.[Br-].[Br-]", "relative growth": "inactive: 1.05"}
{"smiles": "Cl.NCCc1cc(O)c(O)cc1O", "relative growth": "inactive: 1.04"}
{"smiles": "Cc1ncc(CNC(=O)N(CCCl)[NH2+][O-])c(N)n1", "relative growth": "inactive: 0.988"}
{"smiles": "c1ccc(CN2CCNCC2)nc1", "relative growth": "inactive: 1.01"}
{"smiles": "C[C@H]1O[C@H](n2cnc3c(N)ncnc32)C[C@H]1O", "relative growth": "inactive: 0.986"}
{"smiles": "OCc1ccc2c(c1)OCO2", "relative growth": "inactive: 1.03"}
{"smiles": "CNc1ccc2oc(C[C@H]3O[C@@]4(CC[C@H]3C)O[C@H]([C@H](C)C(=O)c3ccc[nH]3)[C@H](C)C[C@H]4C)nc2c1C(=O)O", "relative growth": "inactive: 0.962"}
{"smiles": "NC1(c2ccc(Cl)cc2)CC1", "relative growth": "inactive: 0.995"}
{"smiles": "C[C@H](CO)N1C[C@H](C)[C@H](CN(C)C(=O)Oc2ccc3ccccc3c2)OCc2cnnn2CCCC1=O", "relative growth": "inactive: 1.01"}
{"smiles": "COc1cccc(C2(O)CCCCC2CN(C)C)c1.Cl", "note": "(centres undefined)", "relative growth": "inactive: 1.03"}
{"smiles": "COCCCNC(=O)[C@H]1N[C@H]2C[C@@H]1C[C@@H]2F", "relative growth": "inactive: 0.957"}
{"smiles": "C[C@H](N)Cn1ccc2cc(F)c(Cl)cc21", "relative growth": "inactive: 0.987"}
{"smiles": "CN1[C@@H]2CNc3ccccc3[C@@H]2[C@@H]1CO", "relative growth": "inactive: 0.987"}
{"smiles": "O=C1C=CC(=O)c2c(O)cccc21", "relative growth": "inactive: 0.791"}
{"smiles": "O=C(c1ccno1)N1C[C@@H]2CCN[C@@H]2C1", "relative growth": "inactive: 0.932"}
{"smiles": "[N-]=[N+]=Nc1ccccc1C[C@@]1(C(=O)NCc2ccccc2)N=C(c2ccc(OCCCO)cc2)O[C@@H]1c1ccccc1N=[N+]=[N-]", "relative growth": "inactive: 1.03"}
{"smiles": "C1CCc2nnnn2CC1", "relative growth": "inactive: 1.1"}
{"smiles": "CN(CC[C@H](N)CC(=O)N[C@H]1C=C[C@@H](n2ccc(N)nc2=O)O[C@@H]1C(=O)O)C(=N)N", "relative growth": "inactive: 0.955"}
{"smiles": "C=CCN=C=S", "relative growth": "inactive: 0.981"}
{"smiles": "CCNS(=O)(=O)C(F)(F)C(F)(F)C(F)(F)C(F)(F)C(F)(F)C(F)(F)C(F)(F)C(F)(F)F", "relative growth": "inactive: 0.972"}
{"smiles": "C[C@@H]1O[C@@H](O[C@@H]2C[C@@H](O)[C@]3(CO)[C@H]4[C@H](O)C[C@]5(C)[C@@H](C6=CC(=O)OC6)CC[C@]5(O)[C@@H]4CC[C@]3(O)C2)[C@H](O)[C@H](O)[C@H]1O", "relative growth": "inactive: 0.995"}
{"smiles": "CC1(C)C(O)CC(=O)C2(C)C1CC(=O)C1(C)C2CCC2(C)C(c3ccoc3)OC(=O)C3OC321", "note": "(centres undefined)", "relative growth": "inactive: 1.09"}
{"smiles": "COC1=CC2C3Cc4ccc(OC)c(O)c4C2(CCN3C)CC1=O", "note": "(centres undefined)", "relative growth": "inactive: 1.05"}
{"smiles": "Br.CC(Cc1ccc(O)cc1)NCC(O)c1cc(O)cc(O)c1", "note": "(centres undefined)", "relative growth": "inactive: 1.01"}
{"smiles": "CI.O=C(COc1ccc(Cl)cc1Cl)OC[C@H]1CCCN2CCCC[C@@H]12", "relative growth": "inactive: 1"}
{"smiles": "COC(=O)[C@]1(Cc2ccccc2N=[N+]=[N-])N=C(c2ccc(OCCCO)cc2)O[C@@H]1c1ccccc1N=[N+]=[N-]", "relative growth": "inactive: 1.03"}
{"smiles": "O=C1CC(=O)N(Cc2ccccc2)C(=O)N1", "relative growth": "inactive: 0.972"}
{"smiles": "NCC(=O)Nc1ccc(Br)cc1C(=O)c1ccccc1", "relative growth": "inactive: 0.997"}
{"smiles": "CS(=O)(=O)c1ccc(C(=O)C2C(=O)CCCC2=O)c([N+](=O)[O-])c1", "relative growth": "inactive: 1.07"}
{"smiles": "CN1CCO[C@H]2CN(c3ncccn3)C[C@@H]21", "relative growth": "inactive: 1.01"}
{"smiles": "O=C(O)CF.[NaH]", "relative growth": "inactive: 0.985"}
{"smiles": "Cc1cccc(CC2(N)CC2)c1", "relative growth": "inactive: 1.01"}
{"smiles": "C[N+]1(C)C2CC(OC(=O)C(CO)c3ccccc3)CC1C1OC12.[Br-]", "note": "(centres undefined)", "relative growth": "inactive: 1.05"}
{"smiles": "C=C(C)[C@@H]1[C@H]2OC(=O)[C@H]1[C@]1(O)C[C@H]3O[C@]34C(=O)O[C@H]2[C@]14C", "relative growth": "inactive: 1.01"}
{"smiles": "O=C1NC(=O)C(=C[C@@H]2CC=CCC2)C(=O)N1", "relative growth": "inactive: 1.01"}
{"smiles": "OCC1CCCN2CCCCC12", "note": "(centres undefined)", "relative growth": "inactive: 1.04"}
{"smiles": "Clc1ccc(Cl)cc1", "relative growth": "inactive: 1.01"}
{"smiles": "C1CCNCC1", "relative growth": "inactive: 1.01"}
{"smiles": "Nc1ccc2c(c1)Cc1ccccc1-2", "relative growth": "inactive: 0.969"}
{"smiles": "CCN(CC)C(=O)C1=NO[C@]2(CCNC2)C1", "relative growth": "inactive: 0.996"}
{"smiles": "CC(=O)OC1CCC2(C)C(=CCC3C4CCC(=O)C4(C)CCC32)C1", "note": "(centres undefined)", "relative growth": "inactive: 1.07"}
{"smiles": "O=C1COC2(CNC2)CN1", "relative growth": "inactive: 0.94"}
{"smiles": "COS(C)(=O)=O", "relative growth": "inactive: 1.05"}
{"smiles": "C1CN2CN3CCN(CN1C3)C2", "relative growth": "inactive: 0.984"}
{"smiles": "CCn1nnnc1N", "relative growth": "inactive: 0.993"}
{"smiles": "OC[C@H]1O[C@@H](Oc2ccc(/C=C/c3cc(O)cc(O)c3)cc2O)[C@H](O)[C@@H](O)[C@@H]1O", "relative growth": "inactive: 0.996"}
{"smiles": "CC1=CC(=O)c2c(O)cccc2C1=O", "relative growth": "inactive: 0.761"}
{"smiles": "C=C1CC2C(CCC3(C)C(=O)CCC23)C2(C)C=CC(=O)C=C12", "note": "(centres undefined)", "relative growth": "inactive: 0.988"}
{"smiles": "CNCc1cccnc1", "relative growth": "inactive: 0.995"}
{"smiles": "C[C@]12CC[C@](C)(O1)[C@H](C(=O)O)[C@@H]2C(=O)O", "relative growth": "inactive: 1.01"}
{"smiles": "CC1(C)OCC2(CNC2)CO1", "relative growth": "inactive: 0.944"}
{"smiles": "C[C@@H]1CN([C@@H](C)CO)C(=O)c2cc(NC(=O)Nc3ccccc3)ccc2O[C@@H](C)CCCCO[C@H]1CN(C)C(=O)Oc1ccccc1", "relative growth": "inactive: 1.02"}
{"smiles": "O=C(NC[C@H]1CCC2(CCNCC2)O1)C1CC1", "relative growth": "inactive: 1.04"}
{"smiles": "COc1ccc(CN2CCNCC2)c(OC)c1OC.Cl.Cl", "relative growth": "inactive: 0.991"}
{"smiles": "C[C@H]1CN([C@@H](C)CO)C(=O)CCCn2nncc2CO[C@H]1CN(C)C(=O)Oc1cccc2ccccc12", "relative growth": "inactive: 1"}
{"smiles": "CCN1C[C@]23CNC[C@@H](C[C@H]2S1(=O)=O)O3", "relative growth": "inactive: 1.01"}
